Laboratory results from the RNAGym collection of RNA variant scans (doi:10.7554/elife.90254).
The source gives no read counts; variants with many changes may rest on few reads.

B1: OR4K15 (parent)
chain: GUUAACGGUCAUAGGCCAUGGAAACUAGGAGCACCAUUUCGCUGCCAGUGAAGAAAUGAACAAAGAAAAUCUGGGCCAGGCAGGCAUCAAAAGAAAUAGUCUUGCGCUCAACCAGAAAGUCUGUAAUCAUUUUAAGGGUA

Variants of: B1
Assay: self-cleavage, relative activity (ratio to wild type); higher = more cleavage; in vitro, sequencing; the parent is a self-cleaving ribozyme

Variant | self-cleavage
GUUAACGGUCAUAGGCCAUGGGAACUAGGAGCACCAUUUCGCUGCCAGUGAAGAAAUGAACAAAGAAAAUCUGGGCCAGGCGGGCAUCAAAAGAAAUAGUCUUGCGCUCAGCCAGAAAGUCUGUAAUCAUUUUAAGGGUA | 0.02
GAUAACGGUCAUAGGCCAAGGAAACUAGGAGCACCAUUUCGCUGCCAGUGAAGAAAUGAACAGAGAAAAUCUGGGCCAGGCAGGCAUCAAAAGAAAUAGUCUUGCGCUCAACCAGAAAGUCUGUAAUCAUUUUAAGGGUA | 2.1
GUUAACGGUCAUAGGCCAUGGGAACCAGGAGCACCAUUUCGCAGCCAGUGAAGAAAUGAACAAAGAAAAUCUGGGCCAGGCAGGCAUCAAAAGAAAUAGUCCUGCGCUCAACCAGAAAGUCUGUAAUCAUUUUAAGGGUA | 2.25
GUUAACGGUCAUAGGCCAUGGAAACUAGGAGCACCAUUACGCUGCCAGUGAAGAAAUGAACAAAGAAAAUCUGGGCCAGGCAGGCAUCGAAAGAAAUAGUCUUGCGCUCAGCCAGAAAGUCUGUAAUCAUUUUAAGGGUA | 0.03
GUUAACGGUCAUAGGCCAUGGAGACUAGGAGCACCAUUUCGCUGCCAGUGAAGAAAUGAACAAAGAAAAUCUGGGCCAGGCAGGCACCAAAAGAGAUAGUCUUGCGCUCAACCAGAAAGCCUGUAAUCAUUUUAAGGGUA | 0.3
GUUAACGGUCAUAGGCCACGGAAACUAGGAGCACCAUUUCGCUGCCAGUGAAGAAAUGAACAAAGAAAAUCUGGGCCAGGCAGGCACCAAAAGAAAUAGUCUCGCGCUCAACCAGAAAGUCUGUAAUCAUUUUAAGGGUA | 1.08
GUUGGCGGUCAUAGGCCAUGGAAGCUAGGAGCACCAUUUCGCUGCCAGUGAAGAAAUGAACGAAGAAAACCUGGGCCAGGCAGGCAUCAAAAGAAAUAGUCUUGCGCUCAGCCAGAAAGUCUGUAAUCAUUUUAAGGGUA | 0.01
GUUAUCGGUCAUAGGCCAUGGAAACUAGGAGCACCAUUUCGCUGCCAGUGAAGAAAUGAACAAAGAAAGUCUAGGCCAGGCAGGCAUCAAAAGAAAUAGUCUUGCGCUCAACCAGAAAGUCUGUAAUCAUUUUAAGGGUA | 0.18
GUUAACGGUCAUAGGCCAUGGAUACUAGGAGCACCAUUUCGCUGCCAGUGAAGAAAUGAACGAAGAAGAUCUGGGCCAGGCAGGCAUCAAAAGAAAUAGUCUUGCGCUCAACCAGAAAGUCUGUAAUCAUUUUAAGGGUA | 0.98
GUUAACGGUCAUAGGCCAUGGAAACUAGGAGCACCAUUUCGCUGCCAGUGGAGUAAUGGACAAAGAAAAUCUGGGCCCGGCAGGCAUCAAAAGAAGUAGUCUUGCGCCCAACCAGAAAGUCUGUAAUCAUUUUAAGGGUA | 0.07
GUUAACGGUCAUAGGCCAUGGUAACUAGGAGCACCAUUUCGCUGCCAGCGAAGAAAUGAACAAAGAAAAUCUGGGCCAGGCAGGCAUCAAAAGAAAUAGUCUUGCGCUCAACCAGAGAGUCUGUAAUCAUUUUAAGGGUA | 1.9
GUUAACGGUCAUAGGCCAUGGUAACUAGGAGCACCAUUUCGCUGCCAGUGAAGAAAUGAACGAAGAAAAUCUGGGCCAGGCAGGCAUCAAAAGAAAUAGUCUUGCGCUCAGCCAGAAAGUCUGUAAUCAUUUUAAGGGUA | 0.01
GUUAACGGUCAUAGGCCAUGGAAACUAGGAGCACCAUUUCGCUGCCAGUGAAGGAAUGUACAAAGAAAAUCUGGGCCGGGCAGGCACCAAAAGAAAUAGUCUUGCGCUCAACCAGAGAGUCUGUAAUCAUUUUAAGGGUA | 0.55
GUUAACGGUCAUAGGCCUUGGAAACUAGGAGCACCAUUUCGCUGCCAGUGGAGAAAUGAACAAAGAAAAUCUGGGCCAGGCGGGCAUCAAAAGAAAUAGUCUUGCGCUCAACCAGAAAGUCUGUAAUCAUUUUAAGGGUA | 0.93
GUUAACGGUCAUAGGCCAUGGAAACUAGGAGCACCAUUUCGCUGCCAGUGAAGAAAUGAACAAAGAAAAUCUGGGCCAGGCAGGCAUCAAGAGAAAUAGUCUUGCGCUCAACCAGAAAGCUUGUAAUCAUUUUAAGGGUA | 2.55
GUUAACGGUCAUAGGCCAUGGAAACUAGGAGCACCAUUUCGCUGCCAGUGAAGAAAUGAACAAAGAAAAUCUGGGCCAGGCAGGCACCGAAAGAAAUAGUCUUGCGCUCAACCAGAGAGUCUGUAAUCAUUUUAAGGGUA | 1.67
GUUAACGGUCAUAGGCCAUGGUAACUAGGAGCACCAUUUCGCUGCCAGUAAAGAAAUGAACAACGAAAAUCUGGGCCAGGCAGGCAUCAAAAGAAAUAGUCUUGCGCUCAACCAGAAAGUCUGUAAUCAUUUUAAGGGUA | 1.18
GUUAACGGCCAUAGGCCAUGGAAACUAGGAGCACCAUUUCGCUGCCAGUGAAGUAAUGAACAAAGAAAAUCUGGGCCAGGCAGGCAUCAAAAGAAAUAGUCUUACGCUCAACCAGAAAGUCUGUAAUCAUUUUAAGGGUA | 0.05
GUUAACGGUCAUAGGCCAUGGAAACUAGGGGCACCACCUCGCUGCCAGUGAAGAAAUGAACAAAGAAAAUCUGGGCCAGGCAGGCAUCAAAAGAAUUAGUCUUGCGCUCAACCAGAAAGUCUGUAAUCAUUUUAAGGGUA | 1.13
GUUAACGGUCAUAGGCCAUGGGAACUAGGAGUACCAUUUCGCUGCCAGUGAAGAAAUGAACAAGGAAAAUCUGGGCCAGGCAGGCAUCAAAAGAAGUAGUCUUGCGCUCAACCUGAAAGUCUGUAAUCAUUUUAAGGGUA | 0.11
GUUAACGGUCAUAGGCCAUGGAAACUAGGAGCACCAUUUCGCUGCCAGUGAAGUAAUGAGCAAAGAGAAUCUGGGCCAGGCAGGCAUCGAAAGAAAUAGUCUUGCGCUCAACCAGAAAGUCUGUAAUCAUCUUAAGGGUA | 0.33

Variant | self-cleavage
GUUAACGGUCAUAGGCCAUGGAAACUAGGAGCACCAUUUCGCUGCCAGUGAAGUAAUGAACAAAGAAAAUCUGGGCCAGGCAGGCAUCAAAAGAAAUAGUCUUGCGCUCAACCAGAAAGUCUGUACUCAUUUUAGGGGUA | 0.37
GUUAACGGUCAUAGGCCAUGGAGACUAGGAGCACCAUUUCGCUGCCAGUGAAGAAAUGAACAAAGAAAAUCUGGGCCAGGCAGGCAUCAAAAGAGAAAGUCUUGCGCUCAACCAGAAAGUCUGUAAUCAUUUUAAGGGUA | 1.42
GUUAACGGUCAUAGGCCAUGGAAACUAGGAGCACCCUUUCGCUGCCAGUGAAGAAAUGGACAAAGAAAAUCUGGGCCAGGCAGGCAUCGAAAGAAAUAGUCUUGCGCCCAACCAGAAUGUCUGUAAUCAUUUUAAGGGUA | 0.01
GUUAACGGUCAUAGGCCAUGGAAACUAGGAGCACCAUUUCGCUGCCAGUGAAGAAAUGAACAAAGAAAAUCUGGGCCAGGCAGGCAUCAAAAGAAGUAGUCUUGCGCACAACCAGAAAUUCUGUAAUCAUUUUAAGGGUA | 0
GUUAGCGGUCCUAGGCCAUGGAAACUAGGAGCGCCAUUUCGCUGCCGGUGAAGAAAUGAACAAAGAAAUUCUGGGCCAGGCAGGCAUCAAAAGAAAUAGUCUUGCGCUCAACCAGAAAGUCUGUAAUCAUUUUAAGGGUA | 0.91
GUUAACGGUUAUAGGCCAUGGAAACUAGGAGCACCAUUUCGCUGCCAGUGAAGAAACGAACAAAUAAAAUCUGGGCCAGGCAGGCAUCAGAAGAAAUAGUCUUGCGCUCAACCAGGAAGUCUGUAAUCAUUUUAAGGGUA | 0.27
GUUAACAGUCAUAGGCCAUGGAAACUAGGAGCACCAUUUCGCUGCCAGUGAAGAAGUGAACAAAGAAAAUCUGGGCCAGGCAGGCAUCAAAAGAAAUAGUCUUGCGCCCAACCAGAAAGUCUGUAAUCAUUUUAAGGGCA | 0.01
GUUAACGGUCAUAGGCCAUGGAAACUAGGAGCACCAUUUCGCUGCCAGUGAGGAAAUGAACAAAGAAAAUCUGGGCCGGGCAGGCAUCAAGAGAAAUAGUCUUGCGCUCAACCAGAAAGUCUGUAAUCAUUUUAAGGGUA | 0.07
GUUAACGGUCAUAGGCCAUGGAAACUAGGAGCACCAUUUCGCUGCCAGUGAAGAAGUGAACAAAGAAAAUCUGGGCCAGGCAGGCAUCAGGAGAAAUAGUCUUGCGCUCAACCAGAAAGUCUGUAAUCAUCUUAAGGGUA | 1.76
GUUAACGGUCAUAGGCCAUGGAAACUAGGAGCACCAUUUCGCUGCCAGUGAAGAAAUGAGCAAAGAAAAUCUGGGCCAGGCAGGCAUCAAAAGAAAUAGUCUCGCGCUCAACCAGAAAGUCCGUAAUCAUUUUAAGGGUA | 0.61
GUUAACGGUCAUAGGCCAUGGAAACUAGGGGCACCAUUUCGCUGCCAGUGAAGAAAUGAACAAAGAAAAUCUGGGCCAGGCAGGCGUCAAAAGAAAUAGUCUUGCGCUCAGCCAGAGAGUCUGUAAUCAUUUUAAGGGUA | 0.01
GUUAACGGUCAUAGGCCAUGGAAACUAGGAGCACCAUUUCGCUGCCAGUGAAGAAAUGAACGAAGAAAAUCUGGGCCAGGCAGGCGUCAAAAGAAAUAAUCUCGCGCUCAACCAGGAAGUCCGUAAUCAUUAUAAGGGUA | 0.02
GUUAACGGUCAUAGGCCAUGGAAACUAGGAGCACCAUUUCGCUGCCAGUGAAGAAAUGAACAAAGAUAAUCUGGGCCGGGCAGGCAUCGAAAGAAAUAGUCUUGCGCUCAACCAGAAAGUCUGUAAUCAUUUUAAGGGUA | 0.21
GUUGACGGUCAUAGGCCAUGGAAACUAGGAGCACCAUUUCGCUGCCAGUGAAGAAGUGGACAAAGAAAAUCUGGGCCAGGCAGGCAUCAAAAGAAAUAGUCUCGCGCUCAACCAGAAAGUCUGUACUCAUUUUAAGGGUA | 0.29
GUUAACGGUCAUAGGCCAUGGAAACUAGGAGCACCAUUUCGCUGCCAGUGAAGAAAUGAACAAAGGAAAACUGGGCCAGGCAGGCAUCAAAAGAAGUAGUCUUGCGCUCAACCAGAAAGUCUGUAAUCAUUUUAAGGGUA | 1.61
GUUAACGGCCAUAGGCCAUGGAAACUAGGAGCACCAUCUCGCUGCCAGUGAAGAAAUGAACAAAGAAAAUCUGGGCCAGGCAGGCAUCAAAAGAGAUAGUCCUGCGCUCAACCAGAAAGCCUGUAAUCAAUUUAAGGGUA | 1.65
GUUAACGGUCAUAGGCCAUGGAAACUAGGAGCACCAUUUCGCUGCCAGUGAGGAAAUGAACAAAGAGAAUCUGGGCCAGGCUGGCAUCAAAAGGAAUAGCCUUGCGCUCAACCAGAAAGUCUGUAAUCAUUUUAAGGGUA | 0.21
GUUAACGGUCAUAGGCCAUGGAAACUAGGAGCACCAUUUCGCUGCCAGUGAAUAAAUGAACAAAGAAAAUCUGGGCCAGGCAGGCAUCAAAAGAAAUAGUCUUGCGCUCAACCAGAAAGUCUGUAACCAAUUUAAGGGUA | 0.29
GUUAACGGUCAUAGGCCAUGGAAACCAGGAGCACCAUUUCGCCGCCAGUGAAGAAAUGAACAAAGAAAAUCUGGGCCAGGCAGGCAUCAAAAGAAAUAGUCUUGCGCUCAACCAGAAAGUCUGUAAUCAUUAUAAGGGUA | 1.54
GUUAACGGUCAUAGGCCAUGGAAACUAGGAGCACCAUUUCGCUGCCAGUGAAGAAAUGAACAAGGAAAAUCUGGGCCGGGCAGGCAUCAAGAGAAAUAGUCUUGCGCUCAACCAGAAGGUCUGUAAUCAUUUUAAGGGUA | 0.09
